The whole screen tested about 270,000 compounds, of which about 620 (0.23%) were called active. This list was built around the results that the source calls inconclusive (neither active nor inactive); the mix of calls is not that of the screen. The call rests on the fitted dose curve; in most records, active means well fitted inhibition curve with a large enough effect in the polarisation, with a control signal flat (not every such curve was filed as active); inconclusive means small, poorly fitted or top-dose-only effect, or effect the other way, or a change in a side signal; inactive means no such curve, though single readings can be large or run the other way; the % refers to the polarisation. A potency beside an inconclusive call is a rough fit, not a confirmed value. “Side channel” marks fits to a control or component signal instead of the main read-out.
Biological target: Menin (Homo sapiens) (UniProt O00255)
Experiment: qHTS Assay for Inhibitors Targeting the Menin-MLL Interaction in MLL Related Leukemias: Competition With Texas Red Labeled MLL-derived Mutant Peptide
Details: fluorescence polarization; series mostly up to 61.6 µM
Potency means the concentration at half of the fitted maximal effect; tags describe the fitted curve by direction and shape or compound fluorescence and quenching.

Chain of UniProt O00255 (O00255 whole entry, looked up): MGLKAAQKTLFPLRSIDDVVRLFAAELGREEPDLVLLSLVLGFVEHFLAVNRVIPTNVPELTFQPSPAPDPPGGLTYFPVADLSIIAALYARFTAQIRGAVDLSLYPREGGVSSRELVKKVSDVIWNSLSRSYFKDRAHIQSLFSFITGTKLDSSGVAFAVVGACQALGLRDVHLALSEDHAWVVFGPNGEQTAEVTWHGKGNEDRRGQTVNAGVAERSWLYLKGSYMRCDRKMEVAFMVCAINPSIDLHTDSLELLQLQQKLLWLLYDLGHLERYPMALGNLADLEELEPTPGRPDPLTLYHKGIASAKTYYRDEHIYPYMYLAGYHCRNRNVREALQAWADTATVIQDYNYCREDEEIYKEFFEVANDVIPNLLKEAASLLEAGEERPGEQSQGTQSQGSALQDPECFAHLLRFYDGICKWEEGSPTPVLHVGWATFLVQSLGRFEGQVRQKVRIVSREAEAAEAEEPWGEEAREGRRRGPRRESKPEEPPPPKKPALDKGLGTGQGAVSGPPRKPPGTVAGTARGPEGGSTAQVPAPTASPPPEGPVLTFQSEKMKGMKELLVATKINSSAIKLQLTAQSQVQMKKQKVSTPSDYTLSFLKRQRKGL

Potency, inconclusive:
O=S(=O)(Nc1ccc(S(=O)(=O)Nc2ccccc2)cc1)c1ccccc1 11.2 µM [quencher, side channel, partial curve]
O=C(NCC1CCN(Cc2ccccc2F)CC1)Nc1cc(F)ccc1F 6.31 µM [inhibitor, single point]
Cc1ccc(NC(=O)C(=O)NCCc2c[nH]c3ccccc23)cc1C 39.8 µM [inhibitor, single point]
O=C(CCN1C(=O)/C(=C/C=C/c2ccccc2)SC1=S)Nc1nc2ccccc2s1 11.2 µM [quencher, side channel, partial curve]
O=C(O)CCC(=O)Nc1nc2nc(-c3ccccc3)cc(-c3ccccc3)n2n1 39.8 µM [inhibitor, single point]
COc1ccc(NS(=O)(=O)c2cc(C(=O)Nc3ccccc3C(=O)O)ccc2C)cc1 20 µM [quencher, side channel, single point]
Cc1ccc(NC(=O)Nc2ccc(F)c(Cl)c2)cc1 7.08 µM [quencher, side channel, single point]
O=C1CC(c2ccco2)CC(O)=C1C=Nc1cc(Cl)cc(Cl)c1 (stereo not given) 28.2 µM [quencher, side channel, partial curve]
O=C(NCc1ccccc1)N1CCC(Cc2ccccc2)CC1 28.2 µM [fluorescent, side channel, single point]
COc1ccc(/C=c2\s/c(=C/C(=O)c3ccc(C)cc3)[nH]c2=O)c(OC)c1 5.62 µM [quencher, side channel, full curve]
COc1ccc(N2CCc3c(C)nc4c(OC)cc(OC)cc4c32)c(OC)c1 0.708 µM [inhibitor, full curve, poor fit]
Cc1ccc(C(=O)COC(=O)c2cccc(N3C(=O)c4c(C)nc5ccccc5c4C3=O)c2)cc1C 35.5 µM [quencher, side channel, single point]
COc1ccc(OC)c(CCNC(=O)CCc2cn(C)c3ccccc23)c1 35.5 µM [fluorescent, side channel, partial curve]
CCOc1cc(C(=S)N2CCOCC2)ccc1OS(=O)(=O)c1ccccc1[N+](=O)[O-] 10 µM [quencher, side channel, partial curve]
O=C(O)c1cccc(N2C(=O)c3cccnc3C2=O)c1 28.2 µM [quencher, side channel, single point]
CCc1cccc2c(C#N)cn(CC(=O)NCc3ccco3)c12 39.8 µM [fluorescent, side channel, single point]
COC(=O)CN1C(=O)C(O)(CC(=O)c2ccc(C)cc2)c2cc(Br)ccc21 (stereo not given) 39.8 µM [inhibitor, single point]
CN(C)CC1CCCCC1OC(=O)/C=C/c1ccc(Cl)cc1Cl (stereo not given) 8.91 µM [fluorescent, side channel, full curve, poor fit]
Oc1ccc(Nc2nc(-c3ccccc3)nc3ccccc23)cc1 12.6 µM [quencher, side channel, partial curve]
O=C1C=CC2=C3c4cc(O)c(O)cc4C[C@@]3(O)COC2=C1 28.2 µM [fluorescent, partial curve]
Cc1ccc(C(=O)CC2(O)C(=O)N(CN3CCOCC3)c3ccccc32)cc1 (stereo not given) 3.16 µM [inhibitor, partial curve, poor fit]
CC(C)c1ccc2nc3sc(C(=O)N4CCc5ccccc5C4)c(N)c3cc2c1 5.62 µM [inhibitor, full curve, poor fit]
C=CCn1c(CSCc2ccccc2)nnc1SCC(=O)N1CCN(c2ccccc2)CC1 10 µM [fluorescent, side channel, partial curve]
Cc1ccc(CN=C(Nc2ccccc2)NC2CCCCC2)cc1 15.8 µM [fluorescent, side channel, partial curve]
CC1=C([N+](=O)[O-])C(c2ccccc2)C2=C(N1)c1ccccc1C2=O (stereo not given) 31.6 µM [quencher, side channel, partial curve]
Cc1ccccc1C(=O)Nc1nnc(S(=O)(=O)N2CCCCCC2)s1 14.1 µM [quencher, side channel, partial curve]
CCn1c(C(=O)NC2CCC(C)CC2)cc2sccc21 (stereo not given) 31.6 µM [fluorescent, side channel, single point]
CCN1CCN(CCC(=O)Nc2cc(OC)cc(OC)c2)CC1 5.01 µM [quencher, side channel, single point]
O=C(Nc1cccs1)Nc1ccccc1Cl 25.1 µM [quencher, side channel, single point]
N=c1c2c(-c3ccccc3)c(-c3ccccc3)n(Cc3ccco3)c2ncn1Cc1ccco1 1.78 µM [fluorescent, side channel, full curve]
c1ccc(OCc2nnc3sc(C4COc5ccccc5O4)nn23)cc1 (stereo not given) 14.1 µM [quencher, side channel, partial curve]
O=c1c(O)c(-c2ccccc2)oc2cccc(O)c12 39.8 µM [inhibitor, single point]
Cc1cc(C(=O)OCC(=O)N2CCN(C(=O)c3ccco3)CC2)c(C)n1-c1ccc(F)cc1 12.6 µM [fluorescent, side channel, partial curve]
Cn1c2ccccc2c2cc(/C=N/NC(=O)c3cc(O)ccc3O)ccc21 12.6 µM [quencher, side channel, partial curve]
Cc1cc(C(=O)NNC(=S)NC(=O)/C=C/c2ccccc2Cl)n[nH]1 31.6 µM [quencher, side channel, partial curve]
O=C(Nc1cccc(N=Cc2cc(Br)cc(Br)c2O)c1)c1ccco1 39.8 µM [quencher, side channel, single point]
COc1cc(/C=N/NC(=O)c2ccccc2O)ccc1OCC(=O)Nc1ccccc1 25.1 µM [quencher, side channel, single point]
O=C1NC(=O)/C(=C\c2cn(Cc3ccccc3F)c3ccccc23)N1 39.8 µM [quencher, side channel, single point]
CCCCn1nc(NC(=O)c2cccs2)c2cc3ccccc3nc21 22.4 µM [quencher, side channel, single point]
COc1ccc2c(C)cc(SCC(=O)Nc3cccnc3Cl)nc2c1 17.8 µM [fluorescent, side channel, single point]
Cc1ncc(CO)c(/C=N/NC(=O)c2cc(Br)ccc2O)c1O 12.6 µM [quencher, side channel, partial curve]
CCC(CNC(=O)c1c(C)nn(-c2ccccc2)c1Cl)c1ccccc1 (stereo not given) 22.4 µM [fluorescent, side channel, partial curve]
CC(C)CNS(=O)(=O)c1ccc(C(=O)Nc2ccc3c(c2)OCCO3)cc1 39.8 µM [fluorescent, side channel, single point]
COc1ccccc1C(=O)NC(=O)Nc1c(C)cc(C)cc1C 17.8 µM [fluorescent, side channel, partial curve]
CC(=O)O[C@]1(C(C)=O)CCC2C3C=C(C)C4=CC(=O)CC[C@]4(C)C3CC[C@@]21C (stereo not given in full) 22.4 µM [fluorescent, side channel, partial curve, poor fit]
CCOC(=O)C1(Cc2ccccc2)CCN(Cc2cccn2-c2nccs2)CC1 15.8 µM [fluorescent, side channel, partial curve]
Cn1c(N/N=C/c2c[nH]c3ccccc23)nc2ccccc21 17.8 µM [quencher, side channel, partial curve]
Cc1cc2nc(CCN(Cc3cccnc3)C(=S)Nc3ccc(F)cc3)[nH]c2cc1C 31.6 µM [quencher, side channel, single point]
CN1C(=O)C(CC(=O)Nc2ccccc2)S/C1=N/c1nccs1 (stereo not given) 35.5 µM [fluorescent, side channel, single point]
Oc1cccc(C2c3[nH]c4ccccc4c3CCN2Cc2ccc3c(c2)CCO3)c1 (stereo not given) 12.6 µM [quencher, side channel, partial curve]
COc1cccc2sc(Nc3nnc(-c4cccs4)o3)nc12 25.1 µM [quencher, side channel, single point]

Potency, active:
Clc1ccc(Oc2ncnc3oc(-c4ccccc4)cc23)cc1 10 µM

Potency, inactive:
Cc1nn(C)cc1C(=O)NNC(=S)Nc1ccccc1
CCN1C(=O)C(CC(=O)Nc2c(C)cccc2C)Nc2cc(S(=O)(=O)N(C)C)ccc21 (stereo not given)
NC(=S)NCCCC(N)C(=O)O (stereo not given)
